These are yes or no findings as the source states them, for the method shown. Binding seen in cells or lysates may run through a third protein. Some binding calls cover weakened binding; strength is not graded here. For some assays here: Where a sequence is shown, tags or fusion partners need not be part of it.

By UniProt entry, the sequences of proteins in these tests, tags left out.
UniProt P06493: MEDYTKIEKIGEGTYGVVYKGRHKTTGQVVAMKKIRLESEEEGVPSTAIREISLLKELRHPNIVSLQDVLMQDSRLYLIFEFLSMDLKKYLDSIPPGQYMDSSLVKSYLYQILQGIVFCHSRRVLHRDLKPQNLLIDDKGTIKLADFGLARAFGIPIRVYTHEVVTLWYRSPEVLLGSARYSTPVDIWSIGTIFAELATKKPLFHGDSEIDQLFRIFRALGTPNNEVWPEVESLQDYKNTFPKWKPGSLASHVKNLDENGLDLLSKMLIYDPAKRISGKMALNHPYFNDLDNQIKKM
UniProt Q15672: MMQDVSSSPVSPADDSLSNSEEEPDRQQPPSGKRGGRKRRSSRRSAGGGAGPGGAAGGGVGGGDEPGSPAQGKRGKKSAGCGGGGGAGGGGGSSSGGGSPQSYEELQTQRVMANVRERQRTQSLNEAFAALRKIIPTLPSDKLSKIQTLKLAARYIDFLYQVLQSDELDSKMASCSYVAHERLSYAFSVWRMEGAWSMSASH

The target of assay [1] is T1, USP29 (endogenous) (human (endogenous in MDA-MB-231, BT549, HCC1806)) (UniProt Q9HBJ7).
T1 sequence: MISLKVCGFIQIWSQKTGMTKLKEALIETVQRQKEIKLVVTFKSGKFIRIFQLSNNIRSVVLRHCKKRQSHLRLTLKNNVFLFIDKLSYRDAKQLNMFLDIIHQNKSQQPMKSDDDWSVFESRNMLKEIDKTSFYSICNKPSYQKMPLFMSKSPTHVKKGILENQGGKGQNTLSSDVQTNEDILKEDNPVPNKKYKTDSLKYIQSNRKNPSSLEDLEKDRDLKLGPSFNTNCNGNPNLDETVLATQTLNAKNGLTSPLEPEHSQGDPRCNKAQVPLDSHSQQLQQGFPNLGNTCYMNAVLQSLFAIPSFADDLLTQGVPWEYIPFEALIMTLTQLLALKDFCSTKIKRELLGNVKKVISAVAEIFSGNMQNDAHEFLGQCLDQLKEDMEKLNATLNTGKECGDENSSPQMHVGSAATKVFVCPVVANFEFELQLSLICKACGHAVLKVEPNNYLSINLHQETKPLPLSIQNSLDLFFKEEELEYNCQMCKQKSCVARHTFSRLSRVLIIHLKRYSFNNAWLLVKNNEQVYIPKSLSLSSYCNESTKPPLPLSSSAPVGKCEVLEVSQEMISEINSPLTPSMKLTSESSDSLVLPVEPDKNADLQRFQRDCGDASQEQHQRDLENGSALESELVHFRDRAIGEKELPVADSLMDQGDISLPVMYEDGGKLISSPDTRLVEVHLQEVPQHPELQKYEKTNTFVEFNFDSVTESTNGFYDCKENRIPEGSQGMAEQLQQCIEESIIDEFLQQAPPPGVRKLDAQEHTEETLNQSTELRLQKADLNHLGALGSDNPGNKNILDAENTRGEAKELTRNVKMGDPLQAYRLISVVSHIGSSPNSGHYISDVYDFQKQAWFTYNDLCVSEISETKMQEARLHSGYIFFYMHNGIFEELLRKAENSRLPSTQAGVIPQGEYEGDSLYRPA
As to the kind of experiment: co-IP; endogenous proteins; lysates of MDA-MB-231, BT549 (for USP29-TWIST1 also HCC1806) cells in NETN buffer, primary antibody (IgG as control) with protein A/G beads overnight at 4 °C; USP29-TWIST1 also after treatment of MDA-MB-231 cells with RO-3306.

The target in a further assay is T2, Flag-USP29 M1 (1-286aa) (UniProt Q9HBJ7).
T2 sequence: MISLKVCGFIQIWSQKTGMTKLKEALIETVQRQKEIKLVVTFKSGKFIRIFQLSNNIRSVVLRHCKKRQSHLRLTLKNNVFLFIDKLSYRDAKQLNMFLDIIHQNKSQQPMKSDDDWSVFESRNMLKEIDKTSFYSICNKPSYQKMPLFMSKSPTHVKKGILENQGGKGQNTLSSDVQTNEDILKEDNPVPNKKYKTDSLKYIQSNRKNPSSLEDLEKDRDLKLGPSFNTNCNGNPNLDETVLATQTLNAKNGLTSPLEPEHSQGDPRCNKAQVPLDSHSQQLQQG
Nature of the assay: co-IP; Flag-USP29 full length or truncations co-expressed with HA-TWIST1 in 293T cells; lysates precipitated with S-protein agarose; blot.

The target in assay [2] is T3, Flag-USP29 M2 (287-486aa) (UniProt Q9HBJ7).
T3 sequence: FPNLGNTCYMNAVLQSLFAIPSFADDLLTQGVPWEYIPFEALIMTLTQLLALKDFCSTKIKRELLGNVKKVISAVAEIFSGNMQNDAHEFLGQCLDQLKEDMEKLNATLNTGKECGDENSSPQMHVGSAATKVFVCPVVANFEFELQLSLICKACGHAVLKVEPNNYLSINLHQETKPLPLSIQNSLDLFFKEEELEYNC
The assay is described as above.

Assay [3] has as its target T4, Flag-USP29 M3 (287-686aa) (UniProt Q9HBJ7).
T4 sequence: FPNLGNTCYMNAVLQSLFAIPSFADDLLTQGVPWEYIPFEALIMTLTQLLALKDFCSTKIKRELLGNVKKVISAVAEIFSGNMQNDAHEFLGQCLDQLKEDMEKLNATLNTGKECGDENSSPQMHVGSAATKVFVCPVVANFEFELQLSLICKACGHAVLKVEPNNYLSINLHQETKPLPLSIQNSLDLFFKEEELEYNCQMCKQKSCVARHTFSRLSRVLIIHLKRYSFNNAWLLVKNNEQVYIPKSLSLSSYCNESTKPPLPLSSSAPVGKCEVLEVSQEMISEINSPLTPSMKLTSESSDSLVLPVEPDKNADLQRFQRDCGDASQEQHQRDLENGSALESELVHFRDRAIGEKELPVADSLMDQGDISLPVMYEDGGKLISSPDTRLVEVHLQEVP
Described as above.

Assay [4] concerns the target T5, Flag-USP29 M4 (687-922aa) (UniProt Q9HBJ7).
T5 sequence: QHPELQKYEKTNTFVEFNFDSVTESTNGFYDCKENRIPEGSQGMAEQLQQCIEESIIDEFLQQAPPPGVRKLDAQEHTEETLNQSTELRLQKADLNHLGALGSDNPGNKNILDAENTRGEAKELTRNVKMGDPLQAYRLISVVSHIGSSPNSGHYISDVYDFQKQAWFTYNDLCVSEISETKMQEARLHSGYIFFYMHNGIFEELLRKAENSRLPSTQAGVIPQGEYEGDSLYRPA
Described as above.

The next assay addresses T6, Full length Flag-USP29 (UniProt Q9HBJ7).
T6 sequence: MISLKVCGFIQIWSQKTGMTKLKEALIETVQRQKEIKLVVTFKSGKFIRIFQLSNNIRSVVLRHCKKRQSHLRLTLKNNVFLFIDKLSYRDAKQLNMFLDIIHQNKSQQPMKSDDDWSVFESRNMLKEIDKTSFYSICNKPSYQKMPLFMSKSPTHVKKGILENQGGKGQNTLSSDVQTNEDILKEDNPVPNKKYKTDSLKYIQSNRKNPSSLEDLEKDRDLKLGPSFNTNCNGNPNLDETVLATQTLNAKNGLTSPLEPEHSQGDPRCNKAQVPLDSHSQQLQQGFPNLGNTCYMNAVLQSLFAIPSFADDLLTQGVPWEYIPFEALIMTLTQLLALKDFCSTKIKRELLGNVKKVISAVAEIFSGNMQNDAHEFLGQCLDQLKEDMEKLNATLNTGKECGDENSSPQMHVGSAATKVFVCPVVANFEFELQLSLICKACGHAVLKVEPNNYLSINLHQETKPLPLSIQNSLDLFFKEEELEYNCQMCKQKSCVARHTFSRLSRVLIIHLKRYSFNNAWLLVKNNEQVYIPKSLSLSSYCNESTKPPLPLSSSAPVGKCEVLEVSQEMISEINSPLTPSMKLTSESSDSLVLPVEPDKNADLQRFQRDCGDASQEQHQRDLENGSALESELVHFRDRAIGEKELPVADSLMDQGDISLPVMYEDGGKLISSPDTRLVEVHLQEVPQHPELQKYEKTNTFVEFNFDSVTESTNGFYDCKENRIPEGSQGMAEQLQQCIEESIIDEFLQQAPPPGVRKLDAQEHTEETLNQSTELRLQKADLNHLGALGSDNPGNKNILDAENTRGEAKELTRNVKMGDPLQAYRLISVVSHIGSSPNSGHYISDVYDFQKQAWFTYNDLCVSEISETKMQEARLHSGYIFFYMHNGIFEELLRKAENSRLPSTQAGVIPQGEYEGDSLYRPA
Described as above.

Assay [5] addresses CDK1 (endogenous) (human (endogenous in MDA-MB-231, BT549)) (UniProt P06493). Nature of the assay: co-IP; endogenous proteins; lysates of MDA-MB-231, BT549 (for USP29-TWIST1 also HCC1806) cells in NETN buffer, primary antibody (IgG as control) with protein A/G beads overnight at 4 °C; USP29-TWIST1 also after treatment of MDA-MB-231 cells with RO-3306.
Assay [6] addresses TWIST1 (endogenous) (human (endogenous in MDA-MB-231, BT549, HCC1806)) (UniProt Q15672). The assay is described as above.

On to “TWIST1 (endogenous) (from UniProt Q15672 1-202)”, for which the binding entry in assay [1] is “binds”.
HA-TWIST1 (from UniProt Q15672 1-202): the binding result with Flag-USP29 M1 (1-286aa) is listed as “no binding”; in assay [2] it was “no binding”; in assay [3], “no binding”; in assay [4], “binds”; with Full length Flag-USP29, “binds”.

B1: USP29 (endogenous) (enzyme, UniProt Q9HBJ7 1-922)
chain: MISLKVCGFIQIWSQKTGMTKLKEALIETVQRQKEIKLVVTFKSGKFIRIFQLSNNIRSVVLRHCKKRQSHLRLTLKNNVFLFIDKLSYRDAKQLNMFLDIIHQNKSQQPMKSDDDWSVFESRNMLKEIDKTSFYSICNKPSYQKMPLFMSKSPTHVKKGILENQGGKGQNTLSSDVQTNEDILKEDNPVPNKKYKTDSLKYIQSNRKNPSSLEDLEKDRDLKLGPSFNTNCNGNPNLDETVLATQTLNAKNGLTSPLEPEHSQGDPRCNKAQVPLDSHSQQLQQGFPNLGNTCYMNAVLQSLFAIPSFADDLLTQGVPWEYIPFEALIMTLTQLLALKDFCSTKIKRELLGNVKKVISAVAEIFSGNMQNDAHEFLGQCLDQLKEDMEKLNATLNTGKECGDENSSPQMHVGSAATKVFVCPVVANFEFELQLSLICKACGHAVLKVEPNNYLSINLHQETKPLPLSIQNSLDLFFKEEELEYNCQMCKQKSCVARHTFSRLSRVLIIHLKRYSFNNAWLLVKNNEQVYIPKSLSLSSYCNESTKPPLPLSSSAPVGKCEVLEVSQEMISEINSPLTPSMKLTSESSDSLVLPVEPDKNADLQRFQRDCGDASQEQHQRDLENGSALESELVHFRDRAIGEKELPVADSLMDQGDISLPVMYEDGGKLISSPDTRLVEVHLQEVPQHPELQKYEKTNTFVEFNFDSVTESTNGFYDCKENRIPEGSQGMAEQLQQCIEESIIDEFLQQAPPPGVRKLDAQEHTEETLNQSTELRLQKADLNHLGALGSDNPGNKNILDAENTRGEAKELTRNVKMGDPLQAYRLISVVSHIGSSPNSGHYISDVYDFQKQAWFTYNDLCVSEISETKMQEARLHSGYIFFYMHNGIFEELLRKAENSRLPSTQAGVIPQGEYEGDSLYRPA
On to B1, for which the binding entry in assay [5] and in assay [6] was “binds” in each case.

The values above are taken from paper PMC10104637, “Phosphorylation of USP29 by CDK1 Governs TWIST1 Stability and Oncogenic Functions” (Advanced Science, 2023).
